This passage reports binding results from publication PMC11628327.

By UniProt entry, the sequences of proteins in these tests, tags left out.
UniProt Q9R1E0: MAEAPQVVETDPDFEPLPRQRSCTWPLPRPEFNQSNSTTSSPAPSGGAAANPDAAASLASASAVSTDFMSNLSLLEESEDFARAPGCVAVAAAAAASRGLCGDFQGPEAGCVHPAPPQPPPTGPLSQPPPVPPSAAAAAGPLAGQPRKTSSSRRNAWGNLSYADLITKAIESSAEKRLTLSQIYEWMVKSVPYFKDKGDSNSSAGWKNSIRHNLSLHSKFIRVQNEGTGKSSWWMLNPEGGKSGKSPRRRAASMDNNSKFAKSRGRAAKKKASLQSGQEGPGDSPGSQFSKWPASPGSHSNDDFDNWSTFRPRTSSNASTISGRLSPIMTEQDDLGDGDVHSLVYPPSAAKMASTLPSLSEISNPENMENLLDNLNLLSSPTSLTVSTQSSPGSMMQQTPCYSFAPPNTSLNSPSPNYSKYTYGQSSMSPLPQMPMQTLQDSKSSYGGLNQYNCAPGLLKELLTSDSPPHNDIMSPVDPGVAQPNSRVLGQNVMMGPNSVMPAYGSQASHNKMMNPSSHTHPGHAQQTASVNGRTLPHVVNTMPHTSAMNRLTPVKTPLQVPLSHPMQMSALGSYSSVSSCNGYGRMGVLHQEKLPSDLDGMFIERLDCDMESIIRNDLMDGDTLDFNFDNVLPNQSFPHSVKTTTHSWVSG
UniProt A4L7N3: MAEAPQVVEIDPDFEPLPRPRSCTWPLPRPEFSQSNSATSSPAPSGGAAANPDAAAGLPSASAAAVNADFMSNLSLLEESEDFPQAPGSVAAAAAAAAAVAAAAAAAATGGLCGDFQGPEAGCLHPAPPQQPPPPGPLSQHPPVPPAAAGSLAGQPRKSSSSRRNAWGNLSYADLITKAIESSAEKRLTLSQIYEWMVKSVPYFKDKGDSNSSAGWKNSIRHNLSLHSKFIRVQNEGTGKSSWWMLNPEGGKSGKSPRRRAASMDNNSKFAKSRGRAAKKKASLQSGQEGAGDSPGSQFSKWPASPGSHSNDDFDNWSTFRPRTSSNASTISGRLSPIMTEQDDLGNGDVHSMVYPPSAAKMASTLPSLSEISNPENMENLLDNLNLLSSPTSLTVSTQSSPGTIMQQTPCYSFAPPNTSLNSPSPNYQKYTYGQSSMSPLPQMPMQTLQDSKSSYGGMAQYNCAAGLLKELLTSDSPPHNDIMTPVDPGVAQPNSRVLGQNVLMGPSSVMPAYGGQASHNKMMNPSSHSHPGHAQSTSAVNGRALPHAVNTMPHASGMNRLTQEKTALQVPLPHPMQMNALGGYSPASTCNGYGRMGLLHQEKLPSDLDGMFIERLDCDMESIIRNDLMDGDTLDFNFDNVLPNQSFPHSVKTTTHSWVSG
UniProt P40763: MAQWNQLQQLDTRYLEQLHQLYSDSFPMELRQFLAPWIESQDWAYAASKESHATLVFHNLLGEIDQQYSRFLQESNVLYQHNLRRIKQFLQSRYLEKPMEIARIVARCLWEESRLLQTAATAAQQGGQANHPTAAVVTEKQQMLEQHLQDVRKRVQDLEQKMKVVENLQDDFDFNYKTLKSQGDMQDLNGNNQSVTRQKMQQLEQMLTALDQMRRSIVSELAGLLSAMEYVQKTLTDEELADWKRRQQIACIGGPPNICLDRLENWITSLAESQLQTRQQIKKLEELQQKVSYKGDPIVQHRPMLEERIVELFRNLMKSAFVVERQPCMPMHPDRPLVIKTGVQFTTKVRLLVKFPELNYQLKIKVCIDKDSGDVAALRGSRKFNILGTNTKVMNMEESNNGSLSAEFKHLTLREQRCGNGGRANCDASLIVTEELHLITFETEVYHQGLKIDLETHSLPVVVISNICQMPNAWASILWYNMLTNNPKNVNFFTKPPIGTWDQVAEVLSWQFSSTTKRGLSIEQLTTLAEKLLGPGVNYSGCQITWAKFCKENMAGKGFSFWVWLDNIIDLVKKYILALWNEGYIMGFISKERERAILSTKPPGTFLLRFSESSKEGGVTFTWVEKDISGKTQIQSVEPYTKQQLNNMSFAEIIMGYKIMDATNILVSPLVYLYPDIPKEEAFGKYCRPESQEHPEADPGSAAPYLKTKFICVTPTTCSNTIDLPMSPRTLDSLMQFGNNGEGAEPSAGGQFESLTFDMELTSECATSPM
UniProt P31749: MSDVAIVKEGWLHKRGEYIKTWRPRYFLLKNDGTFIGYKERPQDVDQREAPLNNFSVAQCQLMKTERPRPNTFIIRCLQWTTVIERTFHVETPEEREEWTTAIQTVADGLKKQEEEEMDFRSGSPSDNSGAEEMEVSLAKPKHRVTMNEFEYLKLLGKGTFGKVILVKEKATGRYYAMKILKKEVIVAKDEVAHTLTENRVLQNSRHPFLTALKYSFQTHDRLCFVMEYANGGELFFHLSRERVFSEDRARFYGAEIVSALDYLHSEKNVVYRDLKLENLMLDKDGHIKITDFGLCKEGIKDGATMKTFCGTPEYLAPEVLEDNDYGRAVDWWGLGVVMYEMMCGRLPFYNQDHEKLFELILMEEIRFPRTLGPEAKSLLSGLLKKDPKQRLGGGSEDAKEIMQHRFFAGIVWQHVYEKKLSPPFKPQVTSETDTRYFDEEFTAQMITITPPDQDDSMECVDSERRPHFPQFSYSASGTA
UniProt P42227: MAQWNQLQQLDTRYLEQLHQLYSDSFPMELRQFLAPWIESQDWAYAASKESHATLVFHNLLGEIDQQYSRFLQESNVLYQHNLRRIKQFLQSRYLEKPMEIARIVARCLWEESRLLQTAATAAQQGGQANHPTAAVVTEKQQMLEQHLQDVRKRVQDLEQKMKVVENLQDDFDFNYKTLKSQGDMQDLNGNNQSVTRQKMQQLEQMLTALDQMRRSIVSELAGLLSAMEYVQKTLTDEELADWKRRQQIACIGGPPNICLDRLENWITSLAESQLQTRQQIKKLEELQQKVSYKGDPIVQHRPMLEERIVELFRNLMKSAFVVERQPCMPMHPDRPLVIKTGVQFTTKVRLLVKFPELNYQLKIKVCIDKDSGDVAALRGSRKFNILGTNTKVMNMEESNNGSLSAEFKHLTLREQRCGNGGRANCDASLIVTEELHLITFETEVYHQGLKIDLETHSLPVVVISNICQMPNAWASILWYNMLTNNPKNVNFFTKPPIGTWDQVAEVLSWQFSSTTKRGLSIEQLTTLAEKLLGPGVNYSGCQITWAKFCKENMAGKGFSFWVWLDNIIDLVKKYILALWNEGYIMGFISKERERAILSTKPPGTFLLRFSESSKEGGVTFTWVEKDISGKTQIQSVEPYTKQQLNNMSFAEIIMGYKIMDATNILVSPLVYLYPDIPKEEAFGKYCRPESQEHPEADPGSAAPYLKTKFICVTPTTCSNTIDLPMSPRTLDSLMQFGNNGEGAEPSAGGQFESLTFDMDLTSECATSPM
UniProt Q19S50: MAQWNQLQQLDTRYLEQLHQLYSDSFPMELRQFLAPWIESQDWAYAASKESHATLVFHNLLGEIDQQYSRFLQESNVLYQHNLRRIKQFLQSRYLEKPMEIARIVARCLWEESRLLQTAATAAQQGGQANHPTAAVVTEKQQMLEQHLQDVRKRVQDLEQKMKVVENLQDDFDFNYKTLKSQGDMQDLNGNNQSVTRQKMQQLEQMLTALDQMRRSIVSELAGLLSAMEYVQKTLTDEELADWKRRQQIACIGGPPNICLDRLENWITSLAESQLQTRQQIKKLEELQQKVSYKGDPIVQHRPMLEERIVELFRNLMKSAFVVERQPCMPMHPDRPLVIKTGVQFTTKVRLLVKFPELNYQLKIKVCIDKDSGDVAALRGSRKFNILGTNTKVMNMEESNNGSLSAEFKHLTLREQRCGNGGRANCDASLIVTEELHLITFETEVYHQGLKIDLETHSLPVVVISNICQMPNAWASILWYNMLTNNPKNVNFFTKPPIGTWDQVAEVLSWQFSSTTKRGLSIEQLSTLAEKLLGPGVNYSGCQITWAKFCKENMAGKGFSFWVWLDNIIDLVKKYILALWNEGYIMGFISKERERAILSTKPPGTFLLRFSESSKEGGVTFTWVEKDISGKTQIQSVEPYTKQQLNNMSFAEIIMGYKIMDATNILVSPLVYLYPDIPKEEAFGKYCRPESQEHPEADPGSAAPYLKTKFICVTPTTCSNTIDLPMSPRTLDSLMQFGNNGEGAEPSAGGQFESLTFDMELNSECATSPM

Results are given in words; binding and its absence hold for the method and conditions named. In cells and extracts the contact can be indirect. Some results given as binding are weak or reduced against the parent protein; the word gives no strength.

For assay [1], the target named is FLAG-tagged wild-type FOXO1 (FOXO1-WT) (UniProt Q9R1E0). The assay is described as follows: co-IP; 293T cells, endogenous FOXO1 silenced, FLAG-tagged FOXO1 vectors, hypoxia; cytoplasmic and nuclear fractions; IP, immunoblot.
Assay [2] has the same target. The assay is described as follows: co-IP; NIH/3T3 cells, endogenous FOXO1 silenced, FLAG-tagged FOXO1 vectors, hypoxia; cytoplasmic and nuclear fractions; IP, immunoblot. A general note: A western blot detects proteins with antibodies after separation by electrophoresis.
The target is the same in assay [3]. In words: co-IP; porcine GCs, FOXO1-siRNA 12 h, then FLAG-tagged FOXO1 vectors, hypoxia (1% O2) 12 h; cytoplasmic and nuclear fractions; IP with anti-FLAG-tag, immunoblot.
For assay [4], the target named is FOXO1 (endogenous, porcine granulosa cells) (porcine (endogenous in porcine GCs)) (UniProt A4L7N3). The assay is described as follows: co-IP; endogenous proteins; cytoplasmic and nuclear fractions of GCs freshly isolated from 26 porcine follicles (~4 mm), grouped as low (L) or high (H) hypoxia by HIF-1α level; IP, immunoblot.
Assay [5] has the same target. The assay is described as follows: co-IP; endogenous proteins; cytoplasmic and nuclear fractions of cultured porcine GCs kept 12 h under normoxia (21% O2) or hypoxia (1% O2); IP with anti-FOXO1, Protein A/G magnetic beads, 4°C overnight, immunoblot.
The target is the same in assay [6]. The assay is described as follows: co-IP; endogenous proteins, cells under normoxia (21% O2); blot for p-STAT3 (Tyr705) (Fig. S8).
Assay [7] has the same target. The assay is described as follows: co-IP; endogenous proteins, cells under hypoxia (1% O2); blot for p-STAT3 (Tyr705) (Fig. S8).

As for “STAT3 (endogenous, 293T cells) (from UniProt P40763 1-770)”, the binding result in assay [1] is listed as “binds”.

In the case of “AKT1 (endogenous, 293T cells) (from UniProt P31749 1-480)”, the binding result in assay [1] is listed as “binds”.

For “STAT3 (endogenous, NIH/3T3 cells) (from UniProt P42227 1-770)”, the binding entry in assay [2] is recorded as “binds”.

With “STAT3 (endogenous, porcine granulosa cells) (from UniProt Q19S50 1-770)”, the binding entry in assay [3], in assay [4] and in assay [5] was “binds” in each case.

Consider “STAT3 phosphorylated at Tyr705 (endogenous, porcine granulosa cells) (from UniProt Q19S50 1-770)”, for which the values for the binding result in assay [6] and in assay [7] were “no binding (condition: under normoxia (21% O2))” and “binds”, respectively.
